# Out of some 48,000 compounds screened, about 450 (0.94%) were called active. About 19% were inconclusive and are not listed. Calls follow the shape of the dose curve; as a rule, active = well fitted inhibition curve with a large enough effect; inconclusive = small, poorly fitted or top-dose-only effect; inactive = no such curve, though single readings can be large or run the other way. Some of the results follow.
# Test: Primary qHTS for Identification of Small Molecule Inhibitors of Huntingtin Promoter Activity; also: nearly all actives have a fitted effect of over 50% in size
# Details: HEK293 HTT promoter firefly luciferase reporter (activity 0% = vehicle and -100% = no light), 24 h; series mostly up to 57.5 µM; activity change, negative = inhibition: at the top concentration
# Summary of the method: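 Firefly luciferase signal from promoter-reporter HEK293 cells was scaled between vehicle (0%) and zero RLU (-100%). Compounds were tested at final concentrations of up to 57.5 uM over 24 h at 37 degrees C. PTC124 at 50 uM final served as control inhibitor.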
# Potency is read from the fitted curve at half-maximal effect.
Structure (SMILES),"activity change, negative = inhibition",Potency
CCc1ccccc1NC(=O)CN1C(=O)COc2ccc(S(=O)(=O)N3CCCCCC3)cc21,inactive: -3.49%,
CCN(CC)S(=O)(=O)c1ccc2c(c1)N(CC(=O)NCC(C)c1ccccc1)C(=O)CO2 (configuration not stated),inactive: -11.4%,
CCn1cc(C(=O)N2CCN(c3ccccc3OC)CC2)c(=O)c2cc(S(=O)(=O)N3CCC(C)CC3)ccc21,inactive: -6.15%,
CC(C)Oc1ccc(CNC(=O)c2ccccc2NC(=O)c2nsc3ccccc23)cc1,inactive: 9.33%,
CC(=O)Oc1cccc(C)c1,inactive: 5.02%,
CNS(=O)(=O)c1cn(CC(=O)N2CCN(c3cccc(Cl)c3)CC2)cc1S(=O)(=O)NC,inactive: -4.77%,
O=C(CCCCn1c(=O)c2ccccc2n(Cc2ccccc2F)c1=O)NCc1ccccc1Cl,inactive: 0.891%,
Cc1ccc(NC(=O)CSc2nc3ccc(NC(=O)CCc4ccccc4)cc3s2)c(C)c1,inactive: 4.01%,
COC(=O)c1ccc(CN(Cc2ccc(OC)c(OC)c2)S(=O)(=O)c2cc(C(=O)Nc3cccc(C)c3)ccc2F)cc1,inactive: -19.6%,
CCCCC(C=O)NC(=O)C(CC(C)C)NC(=O)OCc1ccccc1 (configuration not stated),inactive: -22.7%,
Cc1oc(-c2ccccc2F)nc1CSCC(=O)NCCc1ccccc1,inactive: -29.4%,
CCC(Oc1ccccc1)C(=O)Nc1ccc(OCc2cc(=O)n3ccc(C)cc3n2)cc1 (configuration not stated),inactive: -4.53%,
COc1ccc(NC(=O)CN(C)S(=O)(=O)c2ccc3nc(C)sc3c2)cc1,inactive: -18%,
COc1ccc(N2C(=O)CS(=O)(=O)C23C(=O)N(Cc2c(F)cccc2Cl)c2ccccc23)cc1 (configuration not stated),inactive: -27%,
CCCCn1cc(S(=O)(=O)c2ccccc2)c(=O)c2cc(F)c(N3CCC(C)CC3)cc21,inactive: -6.11%,
CCOC(=O)c1cnc2c(C)cc(C)cc2c1Nc1ccc(OCc2ccccc2)cc1,inactive: -25.2%,
COc1ccc(NC(=O)C2=C(C)Nc3ncnn3C2c2ccccn2)cc1 (configuration not stated),inactive: -12.4%,
CCOC(=O)C1=C(C(F)(F)F)Nc2ncnn2C1c1cccc(OC)c1OC (configuration not stated),inactive: -15.7% [at 11.5 µM],
CCOc1ccc(CNC(=O)CCc2cn(CC)c3ccccc23)cc1,inactive: -7.83%,
CC1=C(c2ccc(C)c(C)c2)S(=O)(=O)N=C1N1CCC(C(=O)N2CCCCC2)CC1,inactive: -23.8%,
CCCOc1ccccc1-c1nc2n[nH]nc2c(=O)[nH]1,inactive: -2.68%,
CCc1ccc(NC(=O)C2CCN(S(=O)(=O)c3c(C)noc3/C=C\c3ccc(OC)cc3)CC2)cc1,inactive: -15.6%,
COc1cc(C(=O)Nc2ccc(OCc3cc(=O)n4cccc(C)c4n3)cc2)cc(OC)c1OC,inactive: 0.725%,
COc1ccccc1CNc1ccc(-c2nc(-c3cccc(C)c3)no2)cc1[N+](=O)[O-],inactive: -0.489%,

Structure (SMILES),"activity change, negative = inhibition",Potency
CCOc1ccccc1N1CC(c2nc3ccccc3n2CCCCOc2cc(C)ccc2C)CC1=O (configuration not stated),inactive: -6.35%,
O=C(c1cnc(N2CCOCC2)c2ccccc12)N1CCN(c2ccccc2F)CC1,inactive: -25.9%,
CN(C)c1ccc(CNC(=O)c2ccc3c(c2)N(C)C(=O)C2CCCCN32)cc1 (configuration not stated),inactive: 11.3%,
COc1ccc(-n2nc(C(=O)NCc3ccc(F)cc3)c3c4ccccc4n(C)c3c2=O)cc1,inactive: -9.8%,
N#C/C(=C/c1ccccc1Cl)c1nc(-c2cc3ccccc3oc2=O)cs1,inactive: 16.1%,
O=C(Cn1c(=O)n(CC2CCCO2)c(=O)c2ccccc21)Nc1ccc(F)cc1F (configuration not stated),inactive: -11.2%,
COc1cc(C)ccc1OCCSc1nc2ccc(NC(=O)c3ccccc3F)cc2s1,inactive: -11.4%,
COC(=O)c1cc(NC(=O)Cn2nc(-c3ccccc3)c3c(c2=O)CCCC3)cc(C(=O)OC)c1,inactive: -4.52%,
Fc1ccc(NCc2ccccc2-c2nnc(-c3ccccc3Cl)o2)cc1Cl,inactive: 57.3%,
CCOc1ccc(C(c2c(O)cc(C)n(CCOC)c2=O)N2CCN(c3ccc(F)cc3)CC2)cc1 (configuration not stated),inactive: -7.82%,
Cc1cccc2cc(-c3nc(-c4cccs4)no3)c(=O)oc12,inactive: 19.8%,
Cc1sc2ncn(CC(=O)N3CCN(c4cccc(Cl)c4)CC3)c(=O)c2c1S(=O)(=O)N1CCC(C)CC1,inactive: 3.42%,
O=C(Nc1ccccc1Br)N[C@@H]1CCN(c2ccc(C(F)(F)F)cn2)C1,inactive: -3.96%,
CCN(CC)C(=O)Cn1c(=O)n(CCCCCC(=O)NCc2ccc(C)cc2)c(=O)c2sccc21,inactive: -13.9%,
CCOc1ccc(-n2c(=O)c3c(C)c(C)sc3n(Cc3ccc(C(C)(C)C)cc3)c2=O)cc1,inactive: -22.6%,
CC(=O)N1CCc2c(sc3c2c(=O)n(-c2cc(Cl)ccc2C)c(=O)n3C)C1,inactive: -9.42%,
CCCCNC(=O)Cn1nc(N2CCN(c3ccccc3OC)CC2)ccc1=O,inactive: 9.05%,
COc1cccc(C(=O)N2CCc3cc(OC)c(OC)cc3C2COc2ccc3c(C)cc(=O)oc3c2)c1 (configuration not stated),inactive: -5.15%,
CCn1cc(S(=O)(=O)c2cc(C)cc(C)c2)c(=O)c2cc(F)c(N3CCN(c4ccccc4)CC3)cc21,inactive: -25.5%,
COc1ccc(OCC(=O)N2CCN(C(=O)c3cccc(OC)c3OC)CC2)cc1,inactive: 8.43%,
CCCCN(C(=O)CCn1c(=O)oc2ccccc21)c1ccccc1,inactive: -9.61%,
CCOc1ccc(-c2cc(CCCC(=O)NCCc3ccc(SC)cc3)no2)cc1,,active: 794 nM
COCCn1c(C)cc(O)c(C(c2ccccc2Cl)N2CCN(c3ccccc3)CC2)c1=O (configuration not stated),inactive: -11.6%,

# From PubChem BioAssay AID1508623 (National Center for Advancing Translational Sciences (NCATS), 2021)
